Results are given in words; binding and its absence hold for the method and conditions named. Binding seen in cells or lysates may run through a third protein. Some results given as binding are weak or reduced against the parent protein; the word gives no strength. Where a sequence is shown, tags or fusion partners need not be part of it.
What was measured:
Experiment in all cases: co-IP; rabbit anti-Myc beads (Sigma) on lysates of co-transfected COS7 cells; lysis buffer 50 mM HEPES pH 7.5, 0.5% Triton X-100, 150 mM NaCl, 1 mM EDTA; Western blot
[1] = target: T1, ^mycMitofusin1 (UniProt Q811U4)
T1 sequence: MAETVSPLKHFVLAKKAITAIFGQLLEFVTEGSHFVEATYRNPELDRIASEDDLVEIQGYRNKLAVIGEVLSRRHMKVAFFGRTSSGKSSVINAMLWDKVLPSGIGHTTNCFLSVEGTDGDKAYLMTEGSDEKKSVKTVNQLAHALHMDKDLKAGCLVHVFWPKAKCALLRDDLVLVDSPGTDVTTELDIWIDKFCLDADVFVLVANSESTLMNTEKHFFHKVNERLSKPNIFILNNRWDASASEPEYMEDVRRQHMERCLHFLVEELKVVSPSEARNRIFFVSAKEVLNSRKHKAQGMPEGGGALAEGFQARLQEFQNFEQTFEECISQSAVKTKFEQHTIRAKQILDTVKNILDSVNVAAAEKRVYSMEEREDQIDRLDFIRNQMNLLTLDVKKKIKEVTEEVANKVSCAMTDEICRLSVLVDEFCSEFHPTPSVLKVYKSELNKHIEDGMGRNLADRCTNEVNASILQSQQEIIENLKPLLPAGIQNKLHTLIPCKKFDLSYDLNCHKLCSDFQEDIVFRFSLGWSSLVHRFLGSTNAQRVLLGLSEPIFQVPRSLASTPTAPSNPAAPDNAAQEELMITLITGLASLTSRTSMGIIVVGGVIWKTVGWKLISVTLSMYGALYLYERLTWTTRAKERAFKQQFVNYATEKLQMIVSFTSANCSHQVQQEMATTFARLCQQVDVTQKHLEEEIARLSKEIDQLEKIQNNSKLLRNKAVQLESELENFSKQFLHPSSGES

[2] = target: T2, ^mycMitofusin2 (UniProt Q80U63)
T2 sequence: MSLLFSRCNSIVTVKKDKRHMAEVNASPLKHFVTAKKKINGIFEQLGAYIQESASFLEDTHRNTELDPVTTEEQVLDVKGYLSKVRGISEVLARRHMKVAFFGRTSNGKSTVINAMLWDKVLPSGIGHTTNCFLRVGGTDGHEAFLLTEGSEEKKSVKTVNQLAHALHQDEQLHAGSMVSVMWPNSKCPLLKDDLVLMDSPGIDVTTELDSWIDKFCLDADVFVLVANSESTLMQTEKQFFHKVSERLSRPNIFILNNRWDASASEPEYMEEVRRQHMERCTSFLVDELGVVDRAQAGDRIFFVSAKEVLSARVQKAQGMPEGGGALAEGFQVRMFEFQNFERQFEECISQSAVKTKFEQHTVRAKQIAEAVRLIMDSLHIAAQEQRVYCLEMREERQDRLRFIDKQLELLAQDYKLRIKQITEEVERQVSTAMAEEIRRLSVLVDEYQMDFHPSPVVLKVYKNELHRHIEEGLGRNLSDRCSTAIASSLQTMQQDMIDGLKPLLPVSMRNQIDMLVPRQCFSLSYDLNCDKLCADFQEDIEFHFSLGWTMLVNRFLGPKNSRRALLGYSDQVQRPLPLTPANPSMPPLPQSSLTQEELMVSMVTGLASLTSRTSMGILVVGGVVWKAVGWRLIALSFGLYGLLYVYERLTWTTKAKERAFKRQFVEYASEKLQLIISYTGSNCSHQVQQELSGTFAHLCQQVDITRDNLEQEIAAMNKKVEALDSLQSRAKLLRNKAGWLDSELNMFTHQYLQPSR

[3] = target: T3, full-length ^mycTRAK2 (UniProt Q8R2H7)
T3 sequence: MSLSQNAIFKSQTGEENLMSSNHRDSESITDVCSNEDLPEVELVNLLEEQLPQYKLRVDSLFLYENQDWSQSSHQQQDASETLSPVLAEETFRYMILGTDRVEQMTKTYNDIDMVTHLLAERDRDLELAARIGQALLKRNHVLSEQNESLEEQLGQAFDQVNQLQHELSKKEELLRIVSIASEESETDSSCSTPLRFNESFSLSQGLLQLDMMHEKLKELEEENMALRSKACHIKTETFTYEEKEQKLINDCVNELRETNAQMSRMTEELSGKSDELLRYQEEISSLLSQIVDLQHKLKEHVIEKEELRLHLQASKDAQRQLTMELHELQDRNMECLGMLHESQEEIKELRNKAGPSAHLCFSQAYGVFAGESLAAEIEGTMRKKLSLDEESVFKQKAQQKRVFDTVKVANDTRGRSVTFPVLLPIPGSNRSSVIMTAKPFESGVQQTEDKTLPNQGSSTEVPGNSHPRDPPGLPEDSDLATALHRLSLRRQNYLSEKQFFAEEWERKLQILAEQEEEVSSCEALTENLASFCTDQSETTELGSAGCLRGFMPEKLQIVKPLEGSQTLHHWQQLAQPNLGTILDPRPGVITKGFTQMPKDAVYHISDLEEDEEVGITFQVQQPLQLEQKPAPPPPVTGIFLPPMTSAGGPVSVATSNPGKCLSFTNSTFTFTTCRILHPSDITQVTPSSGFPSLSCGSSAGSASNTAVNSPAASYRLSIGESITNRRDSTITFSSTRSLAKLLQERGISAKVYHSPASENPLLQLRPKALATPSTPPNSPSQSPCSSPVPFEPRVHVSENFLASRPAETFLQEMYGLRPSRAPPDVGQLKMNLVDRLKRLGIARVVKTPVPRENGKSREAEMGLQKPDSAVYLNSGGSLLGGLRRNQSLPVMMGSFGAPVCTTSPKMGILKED

Measured: binding

B1: Untagged human DISC1 (protein, UniProt Q9NRI5 1-854)
chain: MPGGGPQGAPAAAGGGGVSHRAGSRDCLPPAACFRRRRLARRPGYMRSSTGPGIGFLSPAVGTLFRFPGGVSGEESHHSESRARQCGLDSRGLLVRSPVSKSAAAPTVTSVRGTSAHFGIQLRGGTRLPDRLSWPCGPGSAGWQQEFAAMDSSETLDASWEAACSDGARRVRAAGSLPSAELSSNSCSPGCGPEVPPTPPGSHSAFTSSFSFIRLSLGSAGERGEAEGCPPSREAESHCQSPQEMGAKAASLDGPHEDPRCLSRPFSLLATRVSADLAQAARNSSRPERDMHSLPDMDPGSSSSLDPSLAGCGGDGSSGSGDAHSWDTLLRKWEPVLRDCLLRNRRQMEVISLRLKLQKLQEDAVENDDYDKAETLQQRLEDLEQEKISLHFQLPSRQPALSSFLGHLAAQVQAALRRGATQQASGDDTHTPLRMEPRLLEPTAQDSLHVSITRRDWLLQEKQQLQKEIEALQARMFVLEAKDQQLRREIEEQEQQLQWQGCDLTPLVGQLSLGQLQEVSKALQDTLASAGQIPFHAEPPETIRSLQERIKSLNLSLKEITTKVCMSEKFCSTLRKKVNDIETQLPALLEAKMHAISGNHFWTAKDLTEEIRSLTSEREGLEGLLSKLLVLSSRNVKKLGSVKEDYNRLRREVEHQETAYETSVKENTMKYMETLKNKLCSCKCPLLGKVWEADLEACRLLIQSLQLQEARGSLSVEDERQMDDLEGAAPPIPPRLHSEDKRKTPLKVLEEWKTHLIPSLHCAGGEQKEESYILSAELGEKCEDIGKKLLYLEDQLHTAIHSHDEDLIQSLRRELQMVKETLQAMILQLQPAKEAGEREAAASCMTAGVHEAQA
binds: all assays above
